Assay results from ChEMBL document CHEMBL4888484, “Replenishing the malaria drug discovery pipeline: Screening and hit evaluation of the MMV Hit Generation Library 1 (HGL1) against asexual blood stage Plasmodium falciparum ,using a nano luciferase reporter read-out” (2022).
Screen size: about 150,000 compounds; about 540 (0.36%) showed an effect of 50% or more. This is one part of the list.

These compounds were tested on Plasmodium falciparum (assay: Primary screen in NF54 nanoGlo assay, in single point, at 2uM, 72h; a lower Z score goes with more inhibition). Conditions: timepoint 72 hour.
Type: functional, Erythrocyte

Row | Compound | % Inhibition [%] | Z score
1 | CC(C)C(=O)N1CCC(Nc2cc(N3CCC[C@@H]3CO)ncn2)CC1 | -8 | 1.74
2 | Fc1cncc(CN2CCCN(Cc3cncc(F)c3)CC2)c1 | -40 | 4.72
3 | COc1ccc(Cl)cc1N1CCC(NC(=O)[C@@H](O)c2ccccc2)C1 (stereo partly drawn) | -5 | 0.78
4 | c1c(N2CCCC2)c2nonc2c2nonc12 | -12 | 2.09
5 | O=S(=O)(CC1CC1)N[C@H]1CCOC2(CCCC2)C1 | 35 | -3.92
6 | CC(C)(O)Cn1cc(Br)cn1 | -5 | 0.75
7 | O=C(NC[C@H](NC(=O)c1ccc[nH]1)C1CCCCC1)c1ccc[nH]1 | -6 | 0.81
8 | COC[C@H](C)NC(=O)c1cn2cc(-c3ccc(OC)cc3F)n(C)c(=O)c2n1 | -26 | 5.17
9 | Cn1cc(S(=O)(=O)NC[C@H](OCCO)c2cccs2)cn1 | -4 | 0.43
10 | Cc1cc(NC(=O)N[C@@H](C)c2ccncc2)n(C)n1 | -12 | 2.18
11 | C[C@H](NCCC1CC(O)C1)c1c(Br)ccc(F)c1F (stereo partly drawn) | -10 | 1.74
12 | Cc1nc2sccn2c1C(=O)NCCc1noc(CO)n1 | -5 | 0.97
13 | O=C(CCC(=O)Nc1nncs1)NCC1CCOCC1 | -9 | 1.36
14 | Cc1ccc(C(=O)OCC(=O)Nc2ccc3c(c2)OCO3)cn1 | 32 | -4.27
15 | CC(C)(C)OC(=O)N1CCN(C2CN(C(=O)OCCCF)C2)CC1 | -1 | 0.2
16 | CS(=O)(=O)c1ccc(CN2C[C@@H]3OCC(=O)N(c4ccccc4)[C@@H]3C2)cc1 | -8 | 1.18
17 | O=C(c1cncc(Br)c1)N1CCCCCCC1 | -7 | 1.14
18 | Cn1c(C2CCCC2)nn(CC(F)F)c1=O | -3 | 0.4
19 | Cc1noc(C)c1CN1CCC(COc2ccc(C3CC3)nn2)CC1 | -4 | 0.44
20 | COCCN1C[C@@H](Cc2ccc(S(=O)(=O)c3ccccc3)cc2)CC1=O | -3 | 0.31
21 | CCOc1cc(CCCNc2nccnc2C#N)ccc1OC | -11 | 1.48
22 | N#Cc1ccc(NC2CCC(O)CC2)cn1 (stereo not drawn) | -2 | 0.18

Row | Compound | % Inhibition [%] | Z score
23 | Cc1nc2cc(OCc3nc(C(=O)N4CCN(C)C(C)(C)C4)co3)ccc2s1 | 0 | -0.02
24 | Cc1nn(C)c(C)c1C(=O)C(=O)N(C1CCCC1)C1CC1 | -7 | 1.16
25 | Cc1cccnc1CNC(=O)Cn1ncc(N2CCc3ccccc3C2)cc1=O | 4 | -0.49
26 | Cc1cc(-n2sc(Cl)c(C)c2=O)ccc1Cl | -5 | 0.69
27 | CCn1c(Cc2c(C)n[nH]c2C)n[nH]c1=O | -7 | 1.38
28 | COc1ccc(CN(Cc2cc(=O)c3cc(F)ccc3[nH]2)CC(C)C)cc1OC | -4 | 0.68
29 | O=C1NCCC[C@@H]1Oc1ccc(C(F)(F)F)cn1 | -12 | 1.57
30 | CCN1CCCc2cc(C(=O)N3CCC(C)CC3)sc21 | -12 | 2.17
31 | CC(C)CN1CC2(CCN(C(=O)CCc3nc4ccccc4[nH]3)CC2)CC1=O | 13 | -1.65
32 | O=c1[nH]c2ccccc2n1-c1ccccc1F | -16 | 2.15
33 | c1ccc(Cn2c(NCc3ccncc3)nc3ccccc32)cc1 | 14 | -1.92
34 | Cc1nn(CC(C)C)c(C)c1S(=O)(=O)NC(=O)c1ccoc1 | -7 | 0.63
35 | Cc1cnn(CC(=O)N[C@@H]2CC=CCC2)c1 | 0 | 0.03
36 | COCCN(C(C)=O)c1nc(COc2cccc(F)c2F)cs1 | -16 | 1.49
37 | Cc1ccc(Cl)c2ccc(NC[C@@]3(CCO)CCOC3)nc12 | -4 | 0.66
38 | Cn1cnc2c(C(=O)N3CC(Cc4ccoc4)C3)ccnc21 | -16 | 1.59
39 | CC1CC(N2CCC(c3nc4cc(Cl)ccc4o3)CC2)C(=O)O1 (stereo not drawn) | -28 | 2.81
40 | Cc1c(CNC(=O)CN2CCN(C)C(=O)C2)sc2ccc(Cl)cc12 | -21 | 3.18
41 | CCOc1ncc(C)cc1NC(=O)N1CCOCC2(CC2)C1 | -1 | 0.08
42 | C#CCNC(=O)CN(CC)C1CCCCC1 | 0 | 0.01
43 | CCCc1nn2c(c1-c1ccc(OC)c(S(=O)(=O)Nc3ccc(C)c(C)c3)c1)NC(=O)CCC2=O | 10 | -1.17
44 | COc1ccc(Cc2n[nH]c(NC(=O)Cn3cc(OC)c(=O)cc3C)n2)cc1 | -7 | 0.87
